Some of the results follow. Many values rest on one well or one pass, so single values are uncertain.
Assays:
Test in all cases: cell count relative to DMSO control; melanoma cells; higher = more viable cells
Conditions in all cases: library dose: standard library concentration; 72 h
SkMel28 = system: SkMel28
SkMel2 = system: SkMel2
SkMel30 = system: SkMel30
SkMel5 = system: SkMel5
UACC257 = system: UACC257
UACC62 = system: UACC62
WM115 = system: WM115
WM1716 = system: WM1716
WM1745 = system: WM1745
WM3526 = system: WM3526
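Further: cells treated in 1,536-well plates, then fixed and DAPI-stained, with nuclei counted from automated high-throughput microscope images.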

Compound	cell count (SkMel28)	cell count (SkMel2)	cell count (SkMel30)	cell count (SkMel5)	cell count (UACC257)	cell count (UACC62)	cell count (WM115)	cell count (WM1716)	cell count (WM1745)	cell count (WM3526)
Cc1ccc(Nc2nccc(N(C)c3ccc4c(C)n(C)nc4c3)n2)cc1S(N)(=O)=O [Pazopanib] + O=C(Nc1cccc(Cl)c1)Nc1ncc(CCNc2ncnc3ccsc23)s1 [SNS314] (first compound 2 µM, partner dose 0.004 µM)	41.6%	86.2%	84.7%	65.2%	62.6%	52%	38.6%	54.6%	52%	66.8%
Cc1ccc(Nc2nccc(N(C)c3ccc4c(C)n(C)nc4c3)n2)cc1S(N)(=O)=O [Pazopanib] + CC(=O)c1c(C)c2cnc(Nc3ccc(N4CCNCC4)cn3)nc2n(C2CCCC2)c1=O [palbociclib] (first compound 2 µM, partner dose 0.2 µM)	35.4%	66%	61.2%	46.1%	82.4%	53.5%	42.8%	45.7%	64%	40%
CC1(C)CCC(c2ccc(Cl)cc2)=C(CN2CCN(c3ccc(C(=O)NS(=O)(=O)c4ccc(N[C@H](CCN5CCOCC5)CSc5ccccc5)c(S(=O)(=O)C(F)(F)F)c4)cc3)CC2)C1 + Cn1nnc2c(C(N)=O)ncn2c1=O [temozolomide] (first compound 2 µM, partner dose 10 µM)	32.4%	79.6%	56.7%	81.8%	36.4%	59.9%	58.3%	31.6%	3.53%	95.2%
Cc1ccc(Nc2nccc(N(C)c3ccc4c(C)n(C)nc4c3)n2)cc1S(N)(=O)=O [Pazopanib] + COc1ccc(C2=N[C@@H](c3ccc(Cl)cc3)[C@@H](c3ccc(Cl)cc3)N2C(=O)N2CCNC(=O)C2)c(OC(C)C)c1 [Nutlin-3] (first compound 2 µM, partner dose 0.5 µM)	48.7%	87.9%	77.4%	55.2%	77.8%	47.4%	55.5%	75.4%	61.5%	87.4%
O=C(/C=C/c1cccnc1)NCCCCC1CCN(C(=O)c2ccccc2)CC1 + CN(NC(=O)CC(=O)NN(C)C(=S)c1ccccc1)C(=S)c1ccccc1 [STA4783] (first compound 0.05 µM, partner dose 0.03 µM)	7.54%	27.9%	88.6%	62.1%	113%	41.7%	15.4%	75.1%	44.9%	105%
CC1(C)CCC(c2ccc(Cl)cc2)=C(CN2CCN(c3ccc(C(=O)NS(=O)(=O)c4ccc(N[C@H](CCN5CCOCC5)CSc5ccccc5)c(S(=O)(=O)C(F)(F)F)c4)cc3)CC2)C1 + O=C(O)c1ccc(-c2c[nH]c3ncc(-c4ccccc4)cc23)cc1C1CCCC1 [GSK650394] (first compound 2 µM, partner dose 0.8 µM)	45.2%	58%	53.2%	62.8%	40.1%	68.8%	65.4%	50.3%	5.12%	71.4%
CC1(C)CCC(c2ccc(Cl)cc2)=C(CN2CCN(c3ccc(C(=O)NS(=O)(=O)c4ccc(N[C@H](CCN5CCOCC5)CSc5ccccc5)c(S(=O)(=O)C(F)(F)F)c4)cc3)CC2)C1 + C[C@]1(c2nc3c(C(N)=O)cccc3[nH]2)CCCN1 [Veliparib] (first compound 2 µM, partner dose 7 µM)	63.4%	71.6%	70.7%	78.3%	41.4%	54.9%	55.6%	58.9%	1.72%	78.3%
CC1(C)CCC(c2ccc(Cl)cc2)=C(CN2CCN(c3ccc(C(=O)NS(=O)(=O)c4ccc(N[C@H](CCN5CCOCC5)CSc5ccccc5)c(S(=O)(=O)C(F)(F)F)c4)cc3)CC2)C1 + NC(=O)c1ccc(N(C(N)=O)c2c(F)cccc2F)nc1-c1ccc(F)cc1F [VX702] (first compound 2 µM, partner dose 2 µM)	104%	72.8%	54.8%	81.4%	43.2%	93.5%	85.7%	66.9%	7.67%	83%
CC1(C)CCC(c2ccc(Cl)cc2)=C(CN2CCN(c3ccc(C(=O)NS(=O)(=O)c4ccc(N[C@H](CCN5CCOCC5)CSc5ccccc5)c(S(=O)(=O)C(F)(F)F)c4)cc3)CC2)C1 + O=C(CCCCCCC(=O)Nc1ccccc1)NO [vorinostat] (first compound 2 µM, partner dose 0.4 µM)	43.1%	51.9%	58.5%	64.6%	36.6%	66.2%	82.1%	62%	4.29%	55.3%
Cc1ccc(Nc2nccc(N(C)c3ccc4c(C)n(C)nc4c3)n2)cc1S(N)(=O)=O [Pazopanib] + COc1ccc(Cl)c(Nc2nc3ccccc3nc2NS(=O)(=O)c2cccc(NC(=O)C(C)(C)N)c2)c1 [XL147] (first compound 2 µM, partner dose 4 µM)	70.2%	93.3%	101%	55.5%	76.3%	61.8%	75.9%	71.3%	69.9%	69.5%
CC1(C)CCC(c2ccc(Cl)cc2)=C(CN2CCN(c3ccc(C(=O)NS(=O)(=O)c4ccc(N[C@H](CCN5CCOCC5)CSc5ccccc5)c(S(=O)(=O)C(F)(F)F)c4)cc3)CC2)C1 + CC(=O)O[C@@]12CO[C@@H]1C[C@H](O)[C@@]1(C)C(=O)[C@H](O)C3=C(C)[C@@H](OC(=O)[C@H](O)[C@@H](NC(=O)OC(C)(C)C)c4ccccc4)C[C@@](O)([C@@H](OC(=O)c4ccccc4)[C@H]21)C3(C)C [Docetaxel] (first compound 2 µM, partner dose 0.0005 µM)	7.07%	8.67%	27.2%	28.9%	38%	34%	12.6%	23.3%	2.35%	28.9%
Cc1ccc(Nc2nccc(N(C)c3ccc4c(C)n(C)nc4c3)n2)cc1S(N)(=O)=O [Pazopanib] + C=CCNC1=C2C[C@@H](C)C[C@H](OC)[C@H](O)[C@@H](C)/C=C(\C)[C@H](OC(N)=O)[C@@H](OC)/C=C\C=C(/C)C(=O)NC(=CC1=O)C2=O [Tanespimycin] (first compound 2 µM, partner dose 0.01 µM)	70.1%	90.4%	75.5%	58.7%	85%	43.9%	27.1%	77.6%	40%	72.6%
Cc1ccc(Nc2nccc(N(C)c3ccc4c(C)n(C)nc4c3)n2)cc1S(N)(=O)=O [Pazopanib] + CN(c1ncccc1CNc1nc(Nc2ccc3c(c2)CC(=O)N3)ncc1C(F)(F)F)S(C)(=O)=O [PF562271] (first compound 2 µM, partner dose 0.4 µM)	80.3%	94.2%	84.9%	60%	64.7%	59.1%	66.9%	68.8%	65.9%	102%
Cc1ccc(Nc2nccc(N(C)c3ccc4c(C)n(C)nc4c3)n2)cc1S(N)(=O)=O [Pazopanib] + NC(=O)Nc1cc(-c2cccc(F)c2)sc1C(=O)N[C@H]1CCCNC1 [AZD7762] (first compound 2 µM, partner dose 0.1 µM)	67.6%	97.4%	90.9%	76.2%	112%	72.9%	75.5%	80%	65.9%	68.5%
CC1(C)CCC(c2ccc(Cl)cc2)=C(CN2CCN(c3ccc(C(=O)NS(=O)(=O)c4ccc(N[C@H](CCN5CCOCC5)CSc5ccccc5)c(S(=O)(=O)C(F)(F)F)c4)cc3)CC2)C1 + C[C@@H]1CCN(C(=O)CC#N)C[C@@H]1N(C)c1ncnc2[nH]ccc12 [CP690550] (first compound 2 µM, partner dose 5 µM)	96%	95.7%	69.3%	103%	35.6%	97.2%	58.5%	70.8%	8.37%	88.1%
CC1(C)CCC(c2ccc(Cl)cc2)=C(CN2CCN(c3ccc(C(=O)NS(=O)(=O)c4ccc(N[C@H](CCN5CCOCC5)CSc5ccccc5)c(S(=O)(=O)C(F)(F)F)c4)cc3)CC2)C1 + CN(NC(=O)CC(=O)NN(C)C(=S)c1ccccc1)C(=S)c1ccccc1 [STA4783] (first compound 2 µM, partner dose 0.03 µM)	61.4%	48.3%	76.7%	75.2%	52%	52.3%	27.4%	44.7%	6.25%	68%
O=C(/C=C/c1cccnc1)NCCCCC1CCN(C(=O)c2ccccc2)CC1 + Cn1c(=O)n(-c2ccc(C(C)(C)C#N)cc2)c2c3cc(-c4cnc5ccccc5c4)ccc3ncc21 [NVP-BEZ235] (first compound 0.05 µM, partner dose 0.02 µM)	34.7%	32.7%	77.8%	55.9%	91.8%	60.5%	65.1%	65.3%	70.3%	60%
O=C(/C=C/c1cccnc1)NCCCCC1CCN(C(=O)c2ccccc2)CC1 + Cc1nc(Nc2ncc(C(=O)Nc3c(C)cccc3Cl)s2)cc(N2CCN(CCO)CC2)n1 [dasatanib] (first compound 0.05 µM, partner dose 0.02 µM)	62.7%	11.3%	89.5%	70%	92.6%	81.6%	50%	49.8%	59.7%	82.8%

Source: the supplement of paper PMC4604168 (melanoma cell lines)
